PubChem BioAssay (NCI)
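Protocol summary: plate cells (96-well), add compound at 5 concentrations, incubate 48 h, interpolate endpoints linearly. GI50 is the concentration that inhibits growth by half. The concentration for full growth arrest is given as TGI.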 Peptide text beside a SMILES is read from it.

The compounds below were run on NCI-H322M lung (assay: inhibition of tumour cell growth, NCI panel, 48 h).

| SMILES | GI50 | TGI |
| --- | --- | --- |
| COc1nc(N)nc2c1ncn2[C@@H]1O[C@H](CO)[C@@H](O)[C@@H]1O | > 100 µM | > 100 µM |
| COc1cc2c(cc1OC)-c1c(oc3cc(OC4OC(CO)C(O)C(O)C4O)c(OC)cc3c1=O)C(O)O2 (centres undefined) | – | > 100 µM |
| CN=C(N)/N=C(\N)Nc1cc2ccccc2c2ccccc12 | – | 30 µM |
| CC1=NN(c2cccc(Cl)c2)C(=N/c2nc3ccccc3s2)/C1=C\c1cccs1 | – | > 100 µM |
| O=[N+]([O-])C(=C(N1CCCCC1)N1CCCCC1)/C(Cl)=C(\Cl)[N+](=O)[O-] | – | 38.1 µM |
| COC(=O)C(Cc1ccccc1)NC(=O)Cn1ccnc1[N+](=O)[O-] (centres undefined) | – | > 100 µM |
| COC(=O)C(Cc1c(C2Nc3ccccc3C2CC(NC(C)=O)C(=O)OC)[nH]c2ccccc12)NC(C)=O (centres undefined) | – | > 100 µM |
| CC1OC(OC2C(CO)OC(O[C@H]3CC[C@@]4(C)C(=CC[C@H]5[C@@H]6C[C@@H]7O[C@](O)(CC[C@H](CO)COC8OC(CO)C(O)C(O)C8O)[C@@H](C)[C@@H]7[C@@]6(C)CC[C@@H]54)C3)C(OC3OC(C)C(O)C(O)C3O)C2O)C(O)C(O)C1O (some centres undefined) | – | > 100 µM |
| CN(C)C1(N(C)C)Oc2c(c(=O)n(C)c(=O)n2C)C(c2ccccc2Br)C1(F)F (centres undefined) | – | > 100 µM |
| NC(=O)CCC(NC(=O)Cc1ccccc1)C(=O)O (centres undefined) (tested in a mixture with another compound) | – | > 8130 µM |
| COc1c(O)c(O)c2c(c1O)C(=O)c1cc(C)cc(O)c1C2=O | – | > 100 µM |
| N#C/C(C(=S)Nc1ccccc1)=C(/N)N1CCCC1 | – | > 100 µM |
| CC1=CC(=O)C(=CN2C(=O)/C(=C\c3cccnc3)NC2=S)C(=O)O1 | – | > 100 µM |
| CC[C@H](C)[C@H](NC(=O)[C@H](CCCCN)NC(=O)[C@H](CCCCN)NC(=O)[C@@H](NC(=O)[C@@H](NC(=O)[C@@H](N)Cc1cnc[nH]1)[C@@H](C)CC)[C@@H](C)CC)C(=O)N[C@@H](CCCNC(=N)N)C(=O)N[C@H](C(=O)N[C@@H](Cc1c[nH]c2ccccc12)C(=O)N[C@@H](Cc1ccc(O)cc1)C(=O)N[C@@H](CCCNC(=N)N)C(=O)N[C@@H](CCCCN)C(=O)N[C@@H](C)C(=O)N[C@@H](Cc1c[nH]c2ccccc12)C(=O)N[C@@H](Cc1cnc[nH]1)C(=O)N[C@H](C(=O)N[C@@H](CC(C)C)C(=O)NCC(=O)N[C@@H](CCCCN)C(=O)N[C@H](C(N)=O)C(C)C)C(C)C)[C@@H](C)O (H-HIIKKIRTWYRKAWHVLGKV-NH2) | 5 µM | 18.4 µM |
| CC(C)[C@@H](C(=O)N1CCC[C@H]1C(=O)OCc1ccccc1)N(C)C(=O)[C@H](C(C)C)N(C)C(=O)[C@H](Cc1ccccc1)N(C)C(=O)[C@H](NC(=O)OC(C)(C)C)C(C)C (HELM PEPTIDE1{[CC(C)(C)OC(=O)[*:2]].[dV].[meF].[meV].[meV].P.[c1ccc(CO[*:1])cc1]}$$$$V2.0) | – | > 100 µM |
| CSC1=Nc2c(c(C)c(C)n2COC(CO)CO)C2=NC(=O)CC(C)N12 (centres undefined) | > 100 µM | > 100 µM |
| COc1ccc2c(c1)CCN1CCCc3ccc(OC)cc3C21 (centres undefined) | – | > 100 µM |
| COc1ccc(OC)c(/C=C2\COc3ccc(O)c(O)c3C2=O)c1 | 3.25 µM | 12.8 µM |
| CC(C)(C)C1(O)C=C(O)C(=O)N1NC(=O)c1ccccc1Nc1ccccc1 (centres undefined) | – | > 100 µM |

| SMILES | GI50 | TGI |
| --- | --- | --- |
| CC1=CC(=O)[C@@H](O)[C@]2(C)[C@H]3[C@@]4(O)OC[C@@]35[C@@H](C[C@@H]12)OC(=O)C(OC(=O)CC1=CCCC1)[C@H]5[C@@H](C)[C@H]4O (some centres undefined) | – | 7.83 µM |
| C=C(Br)C(C)(Br)CCC(Br)C(C)(C)Br (centres undefined) | – | > 100 µM |
| O=C1C(c2c(O)[nH]c3ccccc23)=Nc2ccc(Br)cc21 | – | > 100 µM |
| COCCN(CCOC)C(=O)COc1c2cc(C(C)(C)C)cc1Cc1cc(C(C)(C)C)cc(c1OCC(=O)N(CCOC)CCOC)Cc1cc(C(C)(C)C)cc(c1OCC(=O)N(CCOC)CCOC)Cc1cc(C(C)(C)C)cc(c1OCC(=O)N(CCOC)CCOC)Cc1cc(C(C)(C)C)cc(c1OCC(=O)N(CCOC)CCOC)C2 | – | 12.4 µM |
| Cn1ccnc1C(=O)/C=C/c1ccc(CC(=O)Nc2ccc(F)cc2)cc1 | 2.07 µM | 5.5 µM |
| CCCCCCCCCCCCCCCCCC(=O)OCC(COC1OC(CS(=O)(=O)O)C(O)C(O)C1O)OC(=O)CCCCCCCCCCCCCCCCC (centres undefined) | – | > 100 µM |
| CC(=O)OC1Oc2cc(C)c(C)cc2-c2oc(=O)c(-c3ccc(F)cc3)cc21 (centres undefined) | 28.8 µM | > 100 µM |
| CCCC1=C(C(=O)OCC)C(c2ccccc2OC)C(C#N)=C(N)O1 (centres undefined) | > 100 µM | > 100 µM |
| COC(=O)CS(=O)c1ccccc1 (centres undefined) | – | > 100 µM |
| COc1cc(C2S/C(=C/c3ccccc3)C(=O)N2c2cc(Cl)c(Cl)cc2Cl)cc(OC)c1OC (centres undefined) | – | > 100 µM |
| O=C1C(=c2cc3c(c4ccccc24)=NC24CCCCC2C(c2ccccc2)C=C(c2ccccc2)N34)C(=O)c2ccccc21 (centres undefined) | – | > 100 µM |
| COc1ccc2nc3cc([N+](=O)[O-])ccc3c(Nc3ccc(S(=O)(=O)N=C(N)N)cc3)c2c1 | – | > 100 µM |
| Cc1c(NC(=O)c2cc([N+](=O)[O-])cc([N+](=O)[O-])c2)c(=O)n(-c2ccccc2)n1C | – | > 100 µM |
| CC[C@@H]1CC[C@@H]2[C@H](CC[C@]3(C)[C@@H](O)CC[C@@H]23)[C@H]1CO | – | > 100 µM |
| CNS(=O)(=O)c1ccc2[nH]c(O)c(C3=Nc4ccccc4C3=O)c2c1 | – | > 100 µM |
| O=C1N=NC(=O)N1c1cc(C(F)(F)F)cc(C(F)(F)F)c1 | – | 27.4 µM |
| CCC[CH2][Sn]1([CH2]CCC)[O]CC(CN2CCOCC2)[O]1 (centres undefined) | 15.2 µM | 28.6 µM |
| Cc1c(-c2nnc(-c3ccc(F)cc3)o2)nnn1-c1ccnc2c(C(F)(F)F)cccc12 | 67.1 µM | > 100 µM |
| N#Cc1cc(N(CCCl)CCCl)c([N+](=O)[O-])cc1[N+](=O)[O-] | – | > 100 µM |

| SMILES | GI50 | TGI |
| --- | --- | --- |
| COc1cc(-n2cnc(-c3ccc(Cl)cc3)c2)cc(OC)c1OC | 72 µM | > 100 µM |
| CSc1nc(C)c(Br)c(=O)n1C1OC(COC(C)=O)C(OC(C)=O)C(OC(C)=O)C1OC(C)=O (centres undefined) | – | > 100 µM |
| CN(C)C1=NC2=S(SC(Nc3ccccc3)=N2)S1 (centres undefined) | – | > 100 µM |
| CC(=O)O[C@H]1CC[C@@]2(C)C(=C[C@H](c3ccc(O)cc3)[C@H]3[C@@H]4CC[C@H](OC(C)=O)[C@@]4(C)CC[C@@H]32)C1 | – | 38.2 µM |
| CC(C(=O)O)/C(=C\c1ccc2c(c1)OCO2)C(=O)O (centres undefined) | – | > 67.3 µM |
| CC(C)(O)CO/N=C1\C(c2c(O)[nH]c3ccccc23)=Nc2ccccc21 | – | > 37.1 µM |
| CCCCCNC(=O)c1c(O)[nH]c(=S)[nH]c1=O | – | > 100 µM |
| C/C=C1\CNC1C(=O)O (centres undefined) | – | > 100 µM |
| CC1OC(OC2C(CO)OC(O[C@H]3CC[C@@]4(C)C(=CC[C@H]5[C@@H]6C[C@@H]7O[C@](O)(CC[C@H](C)COC8OC(CO)C(O)C(O)C8O)[C@@H](C)[C@@H]7[C@@]6(C)CC[C@@H]54)C3)C(OC3OC(C)C(O)C(O)C3O)C2O)C(O)C(O)C1O (some centres undefined) | – | 16.2 µM |
| COC1=CC(c2ccc[nH]2)=N/C1=C\c1[nH]c(C)c(C(C)=O)c1C | 9.76 µM | > 100 µM |
| COc1cccc(Cn2c(-c3nonc3NC(C)=O)nc3ccccc32)c1 | 5.74 µM | > 100 µM |
| C=C1CC2CC(=O)C(O)C(C1)C2 (centres undefined) | – | > 100 µM |
| O=c1c2cc(-c3ccccc3)cnc2sn1-c1ccc(Oc2ccccc2)cc1 | – | > 100 µM |
| O=C(O)c1ccccc1-c1ccccc1C(=O)Nc1ccc2c(c1)[nH]c(=O)c1ccccc12 | – | > 100 µM |
| Cc1cc(O)c(C=NC(=S)c2ccccc2)c(=O)o1 | – | > 100 µM |
| CC(C)n1c(=O)n(C)c2cnc3cc(F)c(-c4ccc(OCCCN5CCCCC5)nc4)cc3c21 | 13 µM | 42.3 µM |
| Cc1ccc2c(c1)C(C1Cc3cccc(C)c3C1=O)OC2=O (centres undefined) | – | > 100 µM |
| COc1ccc(-c2cc(-c3cc(C)ccc3O)[nH]c(=O)n2)cc1 | – | > 100 µM |
